Measured values taken from PubChem BioAssay AID686971 (National Center for Advancing Translational Sciences (NCATS), 2013).
Out of some 360,000 compounds screened, about 7,500 (2.1%) were called active. The shares of active, inactive and inconclusive entries below differ from those in the screen. The call rests on the fitted dose curve; in most records, active means well fitted cell-killing curve with a large enough effect; inconclusive means small, poorly fitted or top-dose-only effect, or effect the other way, or another doubt; inactive means no such curve, though single readings can be large or run the other way. No potency is given beside an inconclusive call; the fits are too rough.

Test: qHTS for induction of synthetic lethality in tumor cells producing 2HG: qHTS for the HT-1080-IDH1KD cell line;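 on activity, negative = toxicity: 0% = DMSO wells and -100% = cell-free medium wells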
Conditions: HT-1080 IDH1 knockdown viability, ATP luminescence, 48 h; activity, negative = toxicity: at 46.1 µM (top of the series) unless noted
Procedure, shortened: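 After a 2 h attachment period, IDH1KD HT-1080 cells took pin-transferred compound for 48 h at 37 °C; ATP-based luminescence after 10 min room-temperature reagent incubation reported viability.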
Potency means the concentration at half of the fitted maximal effect; tags describe the fitted curve by direction and shape.

| SMILES | Potency | activity, negative = toxicity |
| --- | --- | --- |
| CCCc1nn(C)c(C(=O)Nc2ccc(Cl)cc2)c1Cl | inactive |  |
| Nc1nc2c(ncn2C2C[C@H](O)[C@@H](CO)O2)c(=O)[nH]1 (stereo partly drawn) | inconclusive [cytotoxic, single point] |  |
| Cc1ccc2nc(SCC(=O)Nc3cc(C(C)(C)C)nn3-c3ccccc3)[nH]c2c1 | inconclusive [cytotoxic, single point] |  |
| COc1cccc2[nH]c(C(=O)NN)c(N)c12 | inactive |  |
| O=C(/C(Br)=C/Nc1cc(Cl)ccc1Cl)C(F)(F)F | inactive |  |
| CCOC(=O)c1ccc(NC(=S)N(CCCN2CCCC(C)C2)Cc2ccco2)cc1 (stereo not drawn) | inconclusive [cytotoxic, single point] |  |
| CCCN(CCC)S(=O)(=O)c1ccc(C(=O)Nc2ccc(OCC(=O)N3CCOCC3)cc2)cc1 | inconclusive [cytotoxic, single point] |  |
| Cc1cc(C)cc(C(=O)Nc2ccc(NC(=O)c3cccs3)cc2)c1 | inconclusive [cytotoxic, single point] |  |
| O=C(CN1C(=O)C(=O)N(Cc2ccco2)C1=O)NC1CCCCC1 | inactive |  |
| Cc1cc(C(=O)COC(=O)CC2Sc3ccccc3NC2=O)c(C)n1-c1cccc(C(F)(F)F)c1 (stereo not drawn) | inconclusive [cytotoxic, single point] |  |
| O=C(c1ccco1)N1CCC(c2nc3c(nnn3Cc3ccccc3Cl)c(=O)[nH]2)CC1 | inactive |  |
| CCc1nc2c(OCc3cc(Cl)cc(Cl)c3)cccn2c1N(C)C(=O)CC(C)C | inconclusive [cytotoxic, single point] |  |
| COC(=O)c1ccc(CSc2ccc3nnc(-c4cccc(F)c4)n3n2)o1 |  | inconclusive: -8.86% [cytotoxic] |
| CCNC1=C(Cl)C(=O)c2ccccc2C1=O | inconclusive [cytotoxic, single point] |  |
| Cc1nnc2c(SC(C)C)nc3ccccc3n12 | inconclusive [cytotoxic, single point] |  |
| CCN1C(=O)[C@H]2[C@@H](c3ccc(-c4cccc(Cl)c4)cc3)N[C@@](C)(C(=O)OC)[C@H]2C1=O | inactive |  |
| COc1ccc(OCC(=O)N2CCN(S(=O)(=O)c3ccccc3[N+](=O)[O-])CC2)cc1 | inactive |  |
| O=C(Nc1nc(-c2ccccn2)cs1)c1ccc(Br)s1 | active: 1.41 µM |  |
| CC(C(=O)N(C)Cc1cccc(F)c1)N1CCN(S(=O)(=O)c2ccc3c(c2)OCCCO3)CC1 (stereo not drawn) | inactive |  |
| COc1cc(C(=O)OCCCN2CCCN(CCCOC(=O)c3cc(OC)c(OC)c(OC)c3)CC2)cc(OC)c1OC | inconclusive [cytotoxic, single point] |  |
| COC(=O)C1=C(C)NC(C)=C([N+](=O)[O-])C1c1ccccc1C(F)(F)F (stereo not drawn) | inactive |  |
| O=C(CSc1n[nH]c(-c2ccccn2)n1)Nc1ccccc1 | active: 20.6 µM |  |
| O=C(NCC(c1ccco1)N1CCc2ccccc21)C(=O)Nc1ccc(F)cc1F (stereo not drawn) | inconclusive [cytotoxic, single point] |  |
| C/C(=N\OCC(=O)NC12CC3CC(CC(C3)C1)C2)c1cc2ccccc2o1 | inconclusive [cytotoxic, single point] |  |
| O=C(c1ccco1)N1CCN(c2nc(C(F)(F)F)nc3c2nnn3Cc2ccccc2)CC1 | inconclusive [cytotoxic, single point] |  |

| SMILES | Potency | activity, negative = toxicity |
| --- | --- | --- |
| O=c1cc(CCl)nc(Cc2c(Cl)cccc2Cl)[nH]1 | active: 25.9 µM |  |
| CCOc1ccc(NCc2cc3c(C(C)(C)C)nn(-c4ccccc4)c3[nH]c2=O)cc1 | inconclusive [cytotoxic, single point] |  |
| O=C(C1CCCCC1)N(Cc1nc2sc3c(c2c(=O)[nH]1)CCCC3)Cc1cccs1 | inconclusive [cytotoxic, single point] |  |
| CCc1ccccc1NC(=O)c1ccccc1Sc1ccc([N+](=O)[O-])cc1Cl | inconclusive [cytotoxic, single point] |  |
| N#Cc1cccc(Nc2c3c(nc4ccccc24)CCCC3)c1 | inconclusive [cytotoxic, single point] |  |
| CCOC(=O)c1c(NC(=O)c2cc(-c3ccc(O)cc3)on2)sc(C(C)=O)c1C | inactive |  |
| Cc1ccc2nc(-c3ccc(Cl)cc3)c(CC3CCCCC3)n2c1 | inconclusive [cytotoxic, single point] |  |
| CCC(C)[C@H](NC(=O)OC(C)(C)C)C(=O)N/N=C/c1cccc2nccnc12 (stereo partly drawn) | inconclusive [cytotoxic, partial curve] |  |
| NC(=O)C1CC(=O)N(c2ccc(OCc3c(Cl)cccc3Cl)cc2)C1 (stereo not drawn) | inactive |  |
| Cc1ccc2nc(-c3ccc(SCC(=O)Nc4nnc(C)s4)nc3)[nH]c2c1 | active: 9.2 µM |  |
| Cc1ccccc1C(=O)NNS(=O)(=O)c1cccc([N+](=O)[O-])c1 | inactive |  |
| Cc1[nH]n(-c2ccccc2)c(=O)c1C(c1ccccc1C(=O)O)c1c(C)[nH]n(-c2ccccc2)c1=O | inactive |  |
| CC(Oc1ccc(Cl)cc1Cl)C(=O)Nc1ccc(N2CCN(C)CC2)cc1 (stereo not drawn) | inconclusive [cytotoxic, single point] |  |
| COc1ccc(C)cc1-n1nnnc1SCc1nc2ccccc2c(=O)[nH]1 | inconclusive [cytotoxic, partial curve] |  |
| O=[N+]([O-])c1cccc(N=Nc2ccc(O)cc2O)c1 | active: 5.8 µM |  |
| CCN(c1ccccc1)S(=O)(=O)c1ccc(F)c(C(=O)O)c1 | inactive |  |
| COc1cccc(-n2cnnc2SC(C)C(=O)NC2CCCC2)c1 (stereo not drawn) | inactive |  |
| O=C(Cc1ccc(Cl)cc1)Nc1ccccc1CO | inactive |  |
| O=C(NCc1ccccc1)c1onc(CSc2ccc(F)c(F)c2)c1C(=O)NCc1ccccc1 | inactive |  |
| CCn1c2ccccc2c2cc(NC(=O)COC(=O)Cc3cn4ccsc4n3)ccc21 | inactive |  |
| CC(=O)Nc1ccc(S(=O)(=O)NCCCN2CCOCC2)cc1 | inactive |  |
| N#C/C(=C\c1cn(Cc2ccc(F)cc2)c2ccccc12)C(=O)NCc1ccco1 | inconclusive [cytotoxic, partial curve] |  |
| O=C(N/N=C/c1ccccn1)c1cccs1 | inconclusive [cytotoxic, single point] |  |
| Cc1ccc(N=C2NC(=O)/C(=C/c3cccn3C)S2)c(C)c1 | inactive |  |
| COc1ccc(Cl)cc1C1=NOC2(CCC2)C(=O)N1Cc1cccc(C#N)c1 | inconclusive [cytotoxic, single point] |  |

| SMILES | Potency | activity, negative = toxicity |
| --- | --- | --- |
| Cc1ccc2oc(-c3cccc(NC(=O)c4cc(-n5cnnc5)ccc4Cl)c3)nc2c1 | inconclusive [cytotoxic, single point] |  |
| COc1ccc(S(=O)(=O)NC(=O)C2(C)CCN2C(=O)Cc2ccccc2Cl)cc1 (stereo not drawn) | inconclusive [cytotoxic, full curve, poor fit] |  |
| COc1ccc(C(NC(=O)C(C)C)c2ccc3cccnc3c2O)cc1 (stereo not drawn) | inconclusive [cytotoxic, partial curve, poor fit] |  |
| Cc1cc(=O)n2c3c(c4c(cc13)c(CN(C)C)cc(=O)n4C)OC2 | inconclusive [cytotoxic, single point] |  |
| CCCc1nc2c(=O)n(C)c(=O)nc-2n(C)n1 | active: 2.06 µM |  |
| COC(=O)[C@@]1(Cc2ccc(F)cc2)[C@@H]2[C@@H](CC(=O)[C@H]2CC(=O)C(=O)N(C)C)CN1C(=O)c1ccccc1 | inactive |  |
| COc1ccc(NC(=O)CN(Cc2ccccc2)Cc2ccccc2)cc1S(N)(=O)=O | inactive |  |
| Cc1ccc(S(=O)(=O)c2ccc([N+](=O)[O-])o2)cc1 | active: 2.59 µM |  |
| COc1ccc(-c2cc(NC(C)=O)c3ncc(-c4ccccc4)n3c2)c(OC)c1 | inconclusive [cytotoxic, single point] |  |
| C[C@@H]1CN([C@@H](C)CO)C(=O)Cc2cc(NC(=O)Nc3cccc4ccccc34)ccc2O[C@@H]1CN(C)Cc1ccc(C(F)(F)F)cc1 | inconclusive [cytotoxic, single point] |  |
| CCOC(=O)N1CCN(c2nc3ccc(C)cc3n3cnnc23)CC1 | inactive |  |
| CCCSc1nnc(-c2cccc(S(=O)(=O)N(C)C)c2)n1-c1cc(OC)ccc1OC | inactive |  |
| Cc1ccc(NC(=S)NC2CC3CCCC(C2)N3Cc2cccs2)cc1 (stereo not drawn) | inconclusive [cytotoxic, single point] |  |
| Cc1ccc(C)c(SCC(=O)Nc2cccc(S(=O)(=O)NC3=NCCCCC3)c2)c1 | inactive |  |
| CN1CCN(c2ccccc2NC(=O)COc2ccc(Cl)cc2)CC1 |  | inconclusive: 21.3% |
| Nc1nc(N)c(Br)c(Nc2ccc(Cl)c(Cl)c2)n1 | inconclusive [cytotoxic, partial curve] |  |
| C=CCc1cc(Cl)ccc1OC(=O)Nc1cccc(Cl)c1 | inactive |  |
| c1coc(-c2nc3ccccc3nc2-c2ccco2)c1 | inconclusive [cytotoxic, single point] |  |
| COc1ccccc1N1CCN(c2ccc([N+](=O)[O-])cc2Cl)CC1 | inconclusive [cytotoxic, single point] |  |
| CCCNC(=O)C1(C)CCCN(C(=O)c2c(C)noc2C)C1 (stereo not drawn) | inactive |  |
| O=C(NCCc1ccccc1)c1coc(=O)c(Br)c1 | active: 23.1 µM |  |
| O=C(CC1(O)C(=O)Nc2cc(Cl)cc(Cl)c21)c1ccccc1O (stereo not drawn) | inconclusive [cytotoxic, single point] |  |
| CC(=O)c1cccc(CN2CCC(C(=O)Nc3ccc(Oc4cccnc4)cc3)CC2)c1 | inconclusive [cytotoxic, single point] |  |
